Source: PubChem BioAssay AID504832 (National Center for Advancing Translational Sciences (NCATS), 2011)
Hit rate of the full screen: of about 310,000 compounds, about 18,000 (5.8%) were called active. This list was built around the results that the source calls inconclusive (neither active nor inactive); the mix of calls is not that of the screen. Calls come from the whole dose curve; as a rule, active = well fitted inhibition curve with a large enough effect; inconclusive = small, poorly fitted or top-dose-only effect, or another doubt; inactive = no such curve, though single readings can be large or run the other way. Potencies of inconclusive entries are left out as doubtful fits.

Assay: Primary qHTS for delayed death inhibitors of the malarial parasite plastid, 48 hour incubation
Conditions: P. falciparum luciferase growth in erythrocytes; series mostly up to 28.7 µM; activity change, negative = inhibition: at the top concentration
In short: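 In quantitative HTS format, infected erythrocytes bearing luciferase-reporter parasites were treated for a single generation at 37 C. Luminescence after adding detection reagent served as the growth measure.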
% is set by controls: 0 for no effect and ±100 for the full control effect; potency is the fitted concentration of half-maximal effect; tags give direction and shape of the fitted curve.

Question: Which Potency does the source give for CS(=O)(=O)Nc1cccc(C2=NN(C(=O)c3ccco3)C(c3cccs3)C2)c1 (stereo not drawn) here?
Answer: inconclusive [inhibitor, partial curve]

Question: Which Potency does the source give for COCCN1CCN(c2cc(-c3ccccc3)nc3cc(-c4cccc(F)c4)nn23)CC1 here?
Answer: active: 11.7 µM

Question: Which Potency does the source give for CCNC(=O)COC(=O)CCC(=O)c1ccc(F)cc1 here?
Answer: inconclusive [inhibitor, single point]

Question: Which Potency does the source give for Cc1cnc(C(=O)OCC(=O)c2ccc[nH]2)cn1 here?
Answer: inconclusive [inhibitor, partial curve, poor fit]

Question: Which Potency does the source give for CC(=O)OC1CC2(C)C(=O)CCC2C2CCc3cc(O)ccc3C12 (stereo not drawn) here?
Answer: inconclusive [inhibitor, full curve, poor fit]

Question: With Cc1ccc2c(c1)-c1c(ssc1=S)C(C)(C)N2C(=O)c1ccco1 as the compound, how does the Potency read?
Answer: active: 0.928 µM

Question: Which Potency does the source give for Cc1ccc(S(=O)(=O)NC2c3cccc4cccc(c34)C2Sc2nc(C)cc(C)n2)cc1 (stereo not drawn) here?
Answer: active: 10.4 µM

Question: Which Potency does the source give for COc1ccc2cc(C(=O)/C=C/c3cc(OC)c(OC)c(OC)c3)ccc2c1 here?
Answer: inconclusive [inhibitor, single point]

Question: For O=C(Nc1ccccc1)Nc1nnc(-c2ccccc2)s1, which “activity change, negative = inhibition” value is on record?
Answer: inactive: 81.9%

Question: For COc1cccc(N(CC(=O)NC2CCCC2)C(=O)Cn2nnc(-c3ccc(C)o3)n2)c1, which Potency is on record?
Answer: inconclusive [inhibitor, single point]

Question: With COc1ccc(NC(=O)C(C)N2C(=O)c3ccccc3C2=O)cc1S(=O)(=O)N1CCOCC1 (stereo not drawn) as the compound, how does the Potency read?
Answer: inconclusive [inhibitor, partial curve, poor fit]

Question: Which “activity change, negative = inhibition” value does the source give for CN(C)S(=O)(=O)c1ccc(NC(=O)c2cc(F)c(F)cc2Cl)cc1 here?
Answer: inactive: -8.07%

Question: With O=Cc1c(OCc2ccccc2)ccc2ccccc12 as the compound, how does the “activity change, negative = inhibition” value read?
Answer: inactive: 56.2%

Question: With COc1ccc(-c2ccc(Nc3ccc(S(=O)(=O)N4CCCC4)cc3)nn2)cc1OC as the compound, how does the Potency read?
Answer: inconclusive [inhibitor, partial curve, poor fit]

Question: For Cn1nc(C(=O)NCc2ccc(Cl)cc2)c2c1-c1ccccc1S(=O)(=O)C2, which Potency is on record?
Answer: inconclusive [inhibitor, single point]

Question: Which “activity change, negative = inhibition” value does the source give for N#CCCN1CCN(C(=O)c2c(N)no[n+]2[O-])CC1 here?
Answer: inactive: 5.3%

Question: With Cc1ccc(C)c(OCC(=O)NCCNC(=O)COc2cc(C)ccc2C)c1 as the compound, how does the Potency read?
Answer: inconclusive [inhibitor, single point]

Question: For O=C(N/N=C/c1c(O)n(-c2ccccc2Cl)c(=O)c2ccccc12)c1cccnc1, which Potency is on record?
Answer: inconclusive [inhibitor, partial curve]

Question: With Clc1cc(Cl)cc(Nc2ncn[nH]2)c1 as the compound, how does the Potency read?
Answer: inconclusive [inhibitor, single point]

Question: With CC(C)(CNC(=O)c1cc(-c2ccc(Cl)s2)nc2ccccc12)N1CCOCC1 as the compound, how does the Potency read?
Answer: inconclusive [inhibitor, single point]

Question: For CCN(CC(=O)Nc1ccccc1OC)CC(=O)Nc1c(Cl)ccc(C)c1Cl, which Potency is on record?
Answer: inconclusive [inhibitor, partial curve, poor fit]

Question: Which Potency does the source give for CC(=O)c1c(C)[nH]c(C(=O)CSc2nnc(-c3ccccc3)o2)c1C here?
Answer: inconclusive [inhibitor, single point]

Question: With CC12CCC(C/C1=N/NC(=O)COc1ccccc1Cl)C2(C)C (stereo not drawn) as the compound, how does the Potency read?
Answer: inconclusive [inhibitor, single point]

Question: Which “activity change, negative = inhibition” value does the source give for CCN(CC)C(=O)c1cc(-c2ccc3c(c2)OCO3)on1 here?
Answer: inactive: 160%

Question: With COc1ccc(C(C)C)cc1S(=O)(=O)N1CCN(c2ccccc2)CC1 as the compound, how does the Potency read?
Answer: inconclusive [inhibitor, partial curve, poor fit]

Question: For O=C1c2cccc(OCc3ccc(F)cc3)c2CCN1Cc1ccc(F)cc1, which Potency is on record?
Answer: inconclusive [inhibitor, partial curve]

Question: With O=C(NC(=S)Nc1nc(-c2ccccc2)cs1)c1cncc(Br)c1 as the compound, how does the Potency read?
Answer: inconclusive [inhibitor, partial curve, poor fit]

Question: For CN(c1ccccc1)S(=O)(=O)c1cc(C(=O)Nc2nc3ccccc3[nH]2)ccc1Cl, which Potency is on record?
Answer: inconclusive [inhibitor, single point]

Question: Which “activity change, negative = inhibition” value does the source give for CN(c1ccccc1)S(=O)(=O)c1cccc(C(=O)NC2CC(C)(C)NC(C)(C)C2)c1 here?
Answer: inactive: -18.9%

Question: For CN(C)CCCN(C(=O)COc1ccccc1)c1nc2ccc(Cl)cc2s1, which “activity change, negative = inhibition” value is on record?
Answer: inactive: 13.7%

Question: For CC1(C)Cc2c(sc3nnn(Cc4ccccc4)c(=O)c23)CO1, which Potency is on record?
Answer: inconclusive [inhibitor, single point]

Question: For O=C(CCC(=O)N1CCN(c2ccccn2)CC1)Nc1nnc(C(F)(F)F)s1, which “activity change, negative = inhibition” value is on record?
Answer: inactive: -3.29%

Question: With COCCNC(=O)CSc1ccc(C)cc1 as the compound, how does the “activity change, negative = inhibition” value read?
Answer: inactive: 11.9%

Question: For Cc1cc(C)c(NC(=O)C2=CCN(S(=O)(=O)c3ccc(F)cc3)CC2)c(C)c1, which “activity change, negative = inhibition” value is on record?
Answer: inactive: 5.26%

Question: With Cc1cc(N(C)/N=C/c2ccccc2O)nc(-c2ccccc2O)n1 as the compound, how does the Potency read?
Answer: inconclusive [inhibitor, partial curve, poor fit]

Question: With CCc1ccc(C(=O)c2cn(CC(=O)Nc3cccc(OC)c3)c3ccc(OC)cc3c2=O)cc1 as the compound, how does the Potency read?
Answer: active: 11.7 µM

Question: With CN(CC1CCCO1)S(=O)(=O)c1ccc(C(=O)N2CCN(c3ccccc3)CC2)cc1 (stereo not drawn) as the compound, how does the Potency read?
Answer: inconclusive [inhibitor, full curve, poor fit]

Question: With COc1ccc(NC(=O)C23CCC(C)(C(=O)C2)C3(C)C)cc1 (stereo not drawn) as the compound, how does the “activity change, negative = inhibition” value read?
Answer: inactive: 34.4%

Question: Which Potency does the source give for Cc1ccc(N2CCN(c3ccc(NCc4nc5ccccc5n4C)cc3)CC2)cc1 here?
Answer: active: 13.1 µM

Question: With Cc1nn2c(-c3ccncc3)ccnc2c1Br as the compound, how does the Potency read?
Answer: inconclusive [inhibitor, single point]

Question: Which Potency does the source give for Cc1ccnc2c(N3C(=O)C4C5c6ccccc6C(c6ccccc65)C4C3=O)cccc12 (stereo not drawn) here?
Answer: inconclusive [inhibitor, single point]

Question: For CCCC[N+](CC#CCO)(CC#Cc1ccccc1)CCCC, which Potency is on record?
Answer: inconclusive [inhibitor, full curve]

Question: With CCN(CC)CCCN1C=C2C(=O)C(C)(OC(=O)C3CCCC3)C(=O)C(c3ccccc3)=C2C=C1CCCC(=O)OC (stereo not drawn) as the compound, how does the Potency read?
Answer: inconclusive [inhibitor, single point]
